# Some of the results follow.
# B1: PX9961A-pdi-456-24-456 (Parabacteroides distasonis) (protein)
# chain: KTSSTQLPTIDAISSVADLTNAVNGVYEQQATEVGSYGAEFTLLADLRSGDFQSISTVNHAGPMYRYQTGKNDEMVYSFYKLFYNSLARLNNVLAAAENLEGADVDILKGELYAMRALYHFDLARVFAKLPSTTDMNDLGIVLSTEVYPTDYIGTRATLQQTYDQILKDIETALPLLSKDKQTGHINYWGALAIRARAYLYLEKNKEALADCKEIIASSPYKLYTRDEYIGAWDKEGTNEAIFEILVTPNYNAQRNSIGYFTHASGYGECAATESFLEELAKHPGDIRTELFAKETDNGYDGTYPQKYKGRDGQIYVNNPKVVRLSEVYLIAAEAALKAGDTSAAAGYMNTLRKNRIENYTDVASITLDDILLERRLELFTEGHTAWDAWRNGKSVNNKFVGEVKPGDYRTIMAIPIGEITVSRGQLIQNPGY
# Experiments:
# Assay in all cases: glycan array binding signal (z-score within array); higher = stronger binding
# Conditions in all cases: glycan notation: IUPAC condensed, linker removed
# [1] = target: GlcNAc(a1-6)Gal(b1-4)GlcNAc
# Outline: (§1)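 Glycan array data were curated from 3228 arrays in the Consortium for Functional Glycomics database and kept only where the protein sequence was available. Glycan names were converted to IUPAC-condensed notation, and columns mapping to the same glycan were averaged. The binding signal is a within-array Z-score, averaged across arrays of the same protein sequence at different concentrations or buffers and across linkers. Negative Z-scores can be read as non-binding.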
# [2] = target: GlcNAc(b1-2)Gal(b1-3)GalNAc
# Outline: as §1
# [3] = target: GlcNAc(b1-2)Man(a1-3)[GlcNAc(b1-2)Man(a1-6)]Man(b1-4)GlcNAc(b1-4)GlcNAc
# Outline: as §1
# [4] = target: GlcNAc(b1-2)Man(a1-3)[GlcNAc(b1-2)Man(a1-6)]Man(b1-4)GlcNAc(b1-4)[Fuc(a1-6)]GlcNAc
# Outline: as §1
# [5] = target: GlcNAc(b1-2)Man(a1-3)[GlcNAc(b1-4)][GlcNAc(b1-2)Man(a1-6)]Man(b1-4)GlcNAc(b1-4)GlcNAc
# Outline: as §1
# [6] = target: GlcNAc(b1-2)Man(a1-3)[GlcNAc(b1-4)][GlcNAc(b1-2)Man(a1-6)]Man(b1-4)GlcNAc(b1-4)[Fuc(a1-6)]GlcNAc
# Outline: as §1
# [7] = target: GlcNAc(b1-2)[GlcNAc(b1-4)]Man(a1-3)[GlcNAc(b1-2)Man(a1-6)]Man(b1-4)GlcNAc(b1-4)GlcNAc
# Outline: as §1
# [8] = target: GlcNAc(b1-2)[GlcNAc(b1-4)]Man(a1-3)[GlcNAc(b1-4)][GlcNAc(b1-2)Man(a1-6)]Man(b1-4)GlcNAc(b1-4)GlcNAc
# Outline: as §1
# [9] = target: GlcNAc(b1-2)[GlcNAc(b1-4)]Man(a1-3)[GlcNAc(b1-4)][GlcNAc(b1-2)[GlcNAc(b1-6)]Man(a1-6)]Man(b1-4)GlcNAc(b1-4)GlcNAc
# Outline: as §1
# [10] = target: GlcNAc(b1-2)[GlcNAc(b1-4)]Man(a1-3)[GlcNAc(b1-4)][GlcNAc(b1-2)[GlcNAc(b1-6)]Man(a1-6)]Man(b1-4)GlcNAc(b1-4)[Fuc(a1-6)]GlcNAc
# Outline: as §1
# [11] = target: GlcNAc(b1-2)[GlcNAc(b1-6)]Man(a1-6)[GlcNAc(b1-2)Man(a1-3)]Man(b1-4)GlcNAc(b1-4)GlcNAc
# Outline: as §1
# [12] = target: GlcNAc(b1-2)[GlcNAc(b1-6)]Man(a1-6)[GlcNAc(b1-2)Man(a1-3)]Man(b1-4)GlcNAc(b1-4)[Fuc(a1-6)]GlcNAc
# Outline: as §1
# [13] = target: GlcNAc(b1-2)[GlcNAc(b1-6)]Man(a1-6)[GlcNAc(b1-4)][GlcNAc(b1-2)Man(a1-3)]Man(b1-4)GlcNAc(b1-4)GlcNAc
# Outline: as §1
# GlcNAc(b1-3)Fuc = target: GlcNAc(b1-3)Fuc
# Outline: as §1
# GlcNAc(b1-3)Gal = target: GlcNAc(b1-3)Gal
# Outline: as §1
# [14] = target: GlcNAc(b1-3)Gal(b1-3)GalNAc
# Outline: as §1
# GlcNAc(b1-3)Gal(b1-4)Glc = target: GlcNAc(b1-3)Gal(b1-4)Glc
# Outline: as §1
# [15] = target: GlcNAc(b1-3)Gal(b1-4)GlcNAc
# Outline: as §1
# [16] = target: GlcNAc(b1-3)Gal(b1-4)GlcNAc(b1-2)Man(a1-3)[GlcNAc(b1-3)Gal(b1-4)GlcNAc(b1-2)Man(a1-6)]Man(b1-4)GlcNAc(b1-4)GlcNAc
# Outline: as §1
# [17] = target: GlcNAc(b1-3)Gal(b1-4)GlcNAc(b1-2)Man(a1-3)[GlcNAc(b1-3)Gal(b1-4)GlcNAc(b1-2)Man(a1-6)]Man(b1-4)GlcNAc(b1-4)[Fuc(a1-6)]GlcNAc
# Outline: as §1
# [18] = target: GlcNAc(b1-3)Gal(b1-4)GlcNAc(b1-2)[GlcNAc(b1-3)Gal(b1-4)GlcNAc(b1-6)]Man(a1-6)[GlcNAc(b1-3)Gal(b1-4)GlcNAc(b1-2)Man(a1-3)]Man(b1-4)GlcNAc(b1-4)GlcNAc
# Outline: as §1
# [19] = target: GlcNAc(b1-3)Gal(b1-4)GlcNAc(b1-3)Gal(b1-4)GlcNAc
# Outline: as §1
# [20] = target: GlcNAc(b1-3)Gal(b1-4)GlcNAc(b1-3)Gal(b1-4)GlcNAc(b1-2)Man(a1-3)[GlcNAc(b1-3)Gal(b1-4)GlcNAc(b1-3)Gal(b1-4)GlcNAc(b1-2)Man(a1-6)]Man(b1-4)GlcNAc(b1-4)GlcNAc
# Outline: as §1
# [21] = target: GlcNAc(b1-3)Gal(b1-4)GlcNAc(b1-3)Gal(b1-4)GlcNAc(b1-2)Man(a1-3)[GlcNAc(b1-3)Gal(b1-4)GlcNAc(b1-3)Gal(b1-4)GlcNAc(b1-2)Man(a1-6)]Man(b1-4)GlcNAc(b1-4)[Fuc(a1-6)]GlcNAc
# Outline: as §1
# [22] = target: GlcNAc(b1-3)Gal(b1-4)GlcNAc(b1-3)Gal(b1-4)GlcNAc(b1-2)[GlcNAc(b1-3)Gal(b1-4)GlcNAc(b1-3)Gal(b1-4)GlcNAc(b1-6)]Man(a1-6)[GlcNAc(b1-3)Gal(b1-4)GlcNAc(b1-3)Gal(b1-4)GlcNAc(b1-2)Man(a1-3)]Man(b1-4)GlcNAc(b1-4)[Fuc(a1-6)]GlcNAc
# Outline: as §1
# [23] = target: GlcNAc(b1-3)Gal(b1-4)GlcNAc(b1-3)Gal(b1-4)GlcNAc(b1-3)Gal(b1-4)GlcNAc(b1-2)Man(a1-3)[GlcNAc(b1-3)Gal(b1-4)GlcNAc(b1-3)Gal(b1-4)GlcNAc(b1-3)Gal(b1-4)GlcNAc(b1-2)Man(a1-6)]Man(b1-4)GlcNAc(b1-4)GlcNAc
# Outline: as §1
# [24] = target: GlcNAc(b1-3)Gal(b1-4)GlcNAc(b1-3)Gal(b1-4)GlcNAc(b1-3)Gal(b1-4)GlcNAc(b1-2)Man(a1-3)[GlcNAc(b1-3)Gal(b1-4)GlcNAc(b1-3)Gal(b1-4)GlcNAc(b1-3)Gal(b1-4)GlcNAc(b1-2)Man(a1-6)]Man(b1-4)GlcNAc(b1-4)[Fuc(a1-6)]GlcNAc
# Outline: as §1
# [25] = target: GlcNAc(b1-3)Gal(b1-4)GlcNAc(b1-3)Gal(b1-4)GlcNAc(b1-3)Gal(b1-4)GlcNAc(b1-2)[GlcNAc(b1-3)Gal(b1-4)GlcNAc(b1-3)Gal(b1-4)GlcNAc(b1-3)Gal(b1-4)GlcNAc(b1-6)]Man(a1-6)[GlcNAc(b1-3)Gal(b1-4)GlcNAc(b1-3)Gal(b1-4)GlcNAc(b1-3)Gal(b1-4)GlcNAc(b1-2)Man(a1-3)]Man(b1-4)GlcNAc(b1-4)[Fuc(a1-6)]GlcNAc
# Outline: as §1
# [26] = target: GlcNAc(b1-3)Gal(b1-4)GlcNAc(b1-3)Gal(b1-4)GlcNAc(b1-3)Gal(b1-4)GlcNAc(b1-3)Gal(b1-4)GlcNAc(b1-2)Man(a1-3)[GlcNAc(b1-3)Gal(b1-4)GlcNAc(b1-3)Gal(b1-4)GlcNAc(b1-3)Gal(b1-4)GlcNAc(b1-3)Gal(b1-4)GlcNAc(b1-2)Man(a1-6)]Man(b1-4)GlcNAc(b1-4)GlcNAc
# Outline: as §1
# [27] = target: GlcNAc(b1-3)Gal(b1-4)GlcNAc(b1-3)Gal(b1-4)GlcNAc(b1-3)Gal(b1-4)GlcNAc(b1-3)Gal(b1-4)GlcNAc(b1-2)Man(a1-3)[GlcNAc(b1-3)Gal(b1-4)GlcNAc(b1-3)Gal(b1-4)GlcNAc(b1-3)Gal(b1-4)GlcNAc(b1-3)Gal(b1-4)GlcNAc(b1-2)Man(a1-6)]Man(b1-4)GlcNAc(b1-4)[Fuc(a1-6)]GlcNAc
# Outline: as §1
# [28] = target: GlcNAc(b1-3)Gal(b1-4)GlcNAc(b1-3)Gal(b1-4)GlcNAc(b1-3)Gal(b1-4)GlcNAc(b1-3)Gal(b1-4)GlcNAc(b1-2)[GlcNAc(b1-3)Gal(b1-4)GlcNAc(b1-3)Gal(b1-4)GlcNAc(b1-3)Gal(b1-4)GlcNAc(b1-3)Gal(b1-4)GlcNAc(b1-6)]Man(a1-6)[GlcNAc(b1-3)Gal(b1-4)GlcNAc(b1-3)Gal(b1-4)GlcNAc(b1-3)Gal(b1-4)GlcNAc(b1-3)Gal(b1-4)GlcNAc(b1-2)Man(a1-3)]Man(b1-4)GlcNAc(b1-4)[Fuc(a1-6)]GlcNAc
# Outline: as §1
# [29] = target: GlcNAc(b1-3)Gal(b1-4)GlcNAc(b1-3)Gal(b1-4)GlcNAc(b1-3)GalNAc
# Outline: as §1
# [30] = target: GlcNAc(b1-3)Gal(b1-4)GlcNAc(b1-3)GalNAc
# Outline: as §1
# [31] = target: GlcNAc(b1-3)Gal(b1-4)GlcNAc(b1-3)[GlcNAc(b1-3)Gal(b1-4)GlcNAc(b1-3)]GalNAc
# Outline: as §1
# [32] = target: GlcNAc(b1-3)Gal(b1-4)GlcNAc(b1-6)[Gal(b1-3)]GalNAc
# Outline: as §1
# [33] = target: GlcNAc(b1-3)Gal(b1-4)GlcNAc(b1-6)[GlcNAc(b1-3)Gal(b1-3)]GalNAc
# Outline: as §1
# [34] = target: GlcNAc(b1-3)Gal(b1-4)GlcNAc(b1-6)[GlcNAc(b1-3)]Gal(b1-4)GlcNAc
# Outline: as §1
# GlcNAc(b1-3)GalNAc = target: GlcNAc(b1-3)GalNAc
# Outline: as §1
# GlcNAc(b1-3)Man = target: GlcNAc(b1-3)Man
# Outline: as §1
# [35] = target: GlcNAc(b1-3)[GlcNAc(b1-4)][GlcNAc(b1-6)]GlcNAc
# Outline: as §1
# [36] = target: GlcNAc(b1-3)[GlcNAc(b1-6)]Gal(b1-4)GlcNAc
# Outline: as §1
# [37] = target: GlcNAc(b1-3)[GlcNAc(b1-6)]GalNAc
# Outline: as §1
# [38] = target: GlcNAc(b1-4)Gal(b1-4)GlcNAc
# Outline: as §1
# GlcNAc(b1-4)GlcNAc = target: GlcNAc(b1-4)GlcNAc
# Outline: as §1
# [39] = target: GlcNAc(b1-4)GlcNAc(b1-4)GlcNAc
# Outline: as §1
binder,measurement,setting,value
B1,glycan array binding signal (z-score),[1],0.156
same,glycan array binding signal (z-score),[2],-0.448
same,glycan array binding signal (z-score),[3],-0.145
same,glycan array binding signal (z-score),[4],0.468
same,glycan array binding signal (z-score),[5],-0.42
same,glycan array binding signal (z-score),[6],-0.51
same,glycan array binding signal (z-score),[7],-0.792
same,glycan array binding signal (z-score),[8],-0.503
same,glycan array binding signal (z-score),[9],-0.235
same,glycan array binding signal (z-score),[10],-0.489
same,glycan array binding signal (z-score),[11],-0.448
same,glycan array binding signal (z-score),[12],-0.141
same,glycan array binding signal (z-score),[13],-0.255
same,glycan array binding signal (z-score),GlcNAc(b1-3)Fuc,-0.078
same,glycan array binding signal (z-score),GlcNAc(b1-3)Gal,-0.469
same,glycan array binding signal (z-score),[14],-0.117
same,glycan array binding signal (z-score),GlcNAc(b1-3)Gal(b1-4)Glc,-0.21
same,glycan array binding signal (z-score),[15],-0.402
same,glycan array binding signal (z-score),[16],-0.047
same,glycan array binding signal (z-score),[17],0.319
same,glycan array binding signal (z-score),[18],0.033
same,glycan array binding signal (z-score),[19],0.39
same,glycan array binding signal (z-score),[20],0.444
same,glycan array binding signal (z-score),[21],-0.098
same,glycan array binding signal (z-score),[22],0.465
same,glycan array binding signal (z-score),[23],0.056
same,glycan array binding signal (z-score),[24],0.199
same,glycan array binding signal (z-score),[25],0.351
same,glycan array binding signal (z-score),[26],0.063
same,glycan array binding signal (z-score),[27],2.18
same,glycan array binding signal (z-score),[28],0.488
same,glycan array binding signal (z-score),[29],0.025
same,glycan array binding signal (z-score),[30],0.389
same,glycan array binding signal (z-score),[31],-0.009
same,glycan array binding signal (z-score),[32],-0.362
same,glycan array binding signal (z-score),[33],-0.509
same,glycan array binding signal (z-score),[34],-0.395
same,glycan array binding signal (z-score),GlcNAc(b1-3)GalNAc,-0.11
same,glycan array binding signal (z-score),GlcNAc(b1-3)Man,-0.376
same,glycan array binding signal (z-score),[35],-0.105
same,glycan array binding signal (z-score),[36],0.067
same,glycan array binding signal (z-score),[37],-0.09
same,glycan array binding signal (z-score),[38],-0.036
same,glycan array binding signal (z-score),GlcNAc(b1-4)GlcNAc,-0.056
same,glycan array binding signal (z-score),[39],-0.431
